Experimental data published in patent US20060052454A1 (priority 2004, published 2006).

Tested on: arthrosis and arthritis
Experiment: Glycine treatment of study participants with arthrosis and arthritis

SMILES: NCC(=O)O [glycine, Glycine]
- Effectiveness of glycine treatment in arthrosis and arthritis (10 g/day oral): effective in all cases
- Pain relief, most people under 40 years of age (10 g/day oral): some pain relief in the first week of treatment
- Time to first results, some people over 60 years old (10 g/day oral): more than four month to see the first results
- Time period in which treatment proved effective (10 g/day oral, according to age and afflicted joint): between two weeks and four months
- Heberden's or Bouchard's nodes, finger shape (more than one year of treatment): recovered the normal shape of their fingers
- Duration of glycine treatment to significant decreases in adverse effects of arthrosis on joints (older participants): 2-3 weeks
